Measured values as given in paper PMC6451091.
The list shows a part of the results. For part of these data: At the low end of the ranking, values are background and their order means little. For part of these data: Measured with an extract: partners may take part in the binding.

target: PU.1 (IVT) (UniProt P17947); assay: protein-binding microarray (PBM); settings: 20 mM HEPES pH 7.9, 100 mM NaCl, 1 mM DTT, 0.2 mg/mL BSA, 0.02% Triton X-100, 2% milk, 0.4 mg/mL salmon testes DNA; 1 h; temperature not stated; high values mean tight binding; double strand, one strand shown; sequences stand for … in GCCTAGCAC…GTGCTAGGTCTTGATTCGCTTGACGCTGCTG

Sequence	binding signal [z-score]
GGAATGAGGAACTGACAGTG	5.58
GGAAAGGGGAAGTTGGCAGC	7.8
CCAAAAAGGAACTGTGCCCC	1.53
GAAAACAGGAAGTCCCATTG	7.34
GAAATGAGGAAGTGCTAGTG	8.07
AAGGAGAGGAAGTGACTGAT	4.78
CAAAAAAGGAACTGGCTAGA	3.89
AAAAGGAGGAAGTGATCCCT	6.77
GAGAGGAGGAAGTACTGTGG	4.34
CTCAGGAGGAAGTGGAGGCA	3.62
AAAAAAGGGAAGTGATGTAC	7.43
GAAAAGAGGAAGTTGGACAT	8.75
AAATAGAGGAAGTGCTCAAT	7.44
AAAAAAAGGAAGTGCTTCAA	7.35
CCTAAGAGGAACTCCCTCAT	2.89
AAAAAAAGGAAGTCAAAGTC	6.75
CAATTCAGGAAGTGTGGCAA	4.09
GAAAAGGGGAAGTGTGGACA	7.67
AGAAAAAGGAAGTGGGTATG	6.21
CACAAGAGGAAGTCCCACAA	3.93

Sequence	binding signal [z-score]
GAAAACAGGAAGTGAGATGC	7.75
AAAAAACGGAACTGGCTAGA	4.94
AGCATGAGGAAGTGTCAGAT	4.45
AGAGGAAGGAAGTGAGAGTA	2.41
TGATAGGGGAAGTGGGAGTT	4.95
GGGAGGAGGAACTGGGGATC	1.9
GATAAGAGGAGGTCCTCTGT	-0.285
AGATTGAGGAAGTGGGCTAT	6.86
CAAAGGGGGAAGTGCCACAC	4.94
AGAAAAAGGAAGTCGGCCTC	5.49
AGAAAGAGGAAGAGCTGCCA	4.1
AAAATGAGGAAGTGAACATC	8.21
AAAAAGAGGAACAGTTTAAG	5.75
AGAAAGAGGAAATGAGGTTT	5.67
TCTTAGAGGAACTGAAATGG	2.19
TAAATGAGGAAGTGCACTTG	7.75
CAAATGAGGAACTGATGCGT	6.08
TAGGAGAGGAAGTGAAAAAC	4.04
GAAAAGAGGAAGTGTGTTCT	8.27
AAAAGAAGGAAGTCCCCTGC	4.71

target: PU.1 (endogenous, THP-1 nuclear extract) (UniProt P17947); assay: nuclear extract protein-binding microarray (nextPBM); settings: 20 mM HEPES pH 7.9, 100 mM NaCl, 1 mM DTT, 0.2 mg/mL BSA, 0.02% Triton X-100, 2% milk, 0.4 mg/mL salmon testes DNA; 1 h; temperature not stated; high values mean tight binding; double strand, one strand shown; sequences stand for … in GCCTAGCAC…GTGCTAGGTCTTGATTCGCTTGACGCTGCTG

Sequence	binding signal [z-score]
GGAATGAGGAACTGACAGTG	6.23
GGAAAGGGGAAGTTGGCAGC	7.42
CCAAAAAGGAACTGTGCCCC	1.59
GAAAACAGGAAGTCCCATTG	7.27
GAAATGAGGAAGTGCTAGTG	7.31
AAGGAGAGGAAGTGACTGAT	4.47
CAAAAAAGGAACTGGCTAGA	2.93
AAAAGGAGGAAGTGATCCCT	6.78
GAGAGGAGGAAGTACTGTGG	5.06
CTCAGGAGGAAGTGGAGGCA	3.75
AAAAAAGGGAAGTGATGTAC	7
GAAAAGAGGAAGTTGGACAT	7.27
AAATAGAGGAAGTGCTCAAT	7.12
AAAAAAAGGAAGTGCTTCAA	7.04
CCTAAGAGGAACTCCCTCAT	3.19
AAAAAAAGGAAGTCAAAGTC	5.92
CAATTCAGGAAGTGTGGCAA	4.42
GAAAAGGGGAAGTGTGGACA	7.1
AGAAAAAGGAAGTGGGTATG	6.18
CACAAGAGGAAGTCCCACAA	5.06

Sequence	binding signal [z-score]
GAAAACAGGAAGTGAGATGC	7.43
AAAAAACGGAACTGGCTAGA	5.12
AGCATGAGGAAGTGTCAGAT	4.66
AGAGGAAGGAAGTGAGAGTA	2.56
TGATAGGGGAAGTGGGAGTT	5.02
GGGAGGAGGAACTGGGGATC	2.14
GATAAGAGGAGGTCCTCTGT	-0.212
AGATTGAGGAAGTGGGCTAT	6.78
CAAAGGGGGAAGTGCCACAC	5.44
AGAAAAAGGAAGTCGGCCTC	5.54
AGAAAGAGGAAGAGCTGCCA	5.22
AAAATGAGGAAGTGAACATC	7.08
AAAAAGAGGAACAGTTTAAG	5.66
AGAAAGAGGAAATGAGGTTT	6.09
TCTTAGAGGAACTGAAATGG	2.48
TAAATGAGGAAGTGCACTTG	7.42
CAAATGAGGAACTGATGCGT	6.39
TAGGAGAGGAAGTGAAAAAC	4.39
GAAAAGAGGAAGTGTGTTCT	7.41
AAAAGAAGGAAGTCCCCTGC	5.56

target: T1, FLI1 (endogenous, THP-1 nuclear extract) (UniProt Q01543); assay: as above; settings: 20 mM HEPES pH 7.9, 100 mM NaCl, 1 mM DTT, 0.2 mg/mL BSA, 0.02% Triton X-100, 2% milk, 0.4 mg/mL salmon testes DNA; 1 h; temperature not stated; high values mean tight binding; double strand, one strand shown; sequences stand for … in GCCTAGCAC…GTGCTAGGTCTTGATTCGCTTGACGCTGCTG
T1 sequence: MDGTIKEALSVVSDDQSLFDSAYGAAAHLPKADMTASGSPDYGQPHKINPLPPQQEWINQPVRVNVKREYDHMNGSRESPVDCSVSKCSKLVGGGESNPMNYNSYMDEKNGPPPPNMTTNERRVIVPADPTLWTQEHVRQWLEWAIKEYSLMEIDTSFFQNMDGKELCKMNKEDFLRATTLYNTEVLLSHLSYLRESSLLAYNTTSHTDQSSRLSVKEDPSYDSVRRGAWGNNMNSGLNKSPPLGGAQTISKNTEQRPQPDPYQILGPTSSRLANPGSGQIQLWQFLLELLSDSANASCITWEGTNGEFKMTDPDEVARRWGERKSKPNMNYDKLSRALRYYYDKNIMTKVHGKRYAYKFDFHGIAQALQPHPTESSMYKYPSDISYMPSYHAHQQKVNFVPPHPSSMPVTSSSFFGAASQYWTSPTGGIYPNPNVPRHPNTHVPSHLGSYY

Sequence	binding signal [z-score]
GGAATGAGGAACTGACAGTG	2.28
GGAAAGGGGAAGTTGGCAGC	4.3
CCAAAAAGGAACTGTGCCCC	0.681
GAAAACAGGAAGTCCCATTG	4.69
GAAATGAGGAAGTGCTAGTG	4.42
AAGGAGAGGAAGTGACTGAT	2.99
CAAAAAAGGAACTGGCTAGA	1.04
AAAAGGAGGAAGTGATCCCT	3.34
GAGAGGAGGAAGTACTGTGG	2.37
CTCAGGAGGAAGTGGAGGCA	2.51
AAAAAAGGGAAGTGATGTAC	3.34
GAAAAGAGGAAGTTGGACAT	4.59
AAATAGAGGAAGTGCTCAAT	3.95
AAAAAAAGGAAGTGCTTCAA	3.47
CCTAAGAGGAACTCCCTCAT	0.898
AAAAAAAGGAAGTCAAAGTC	2.68
CAATTCAGGAAGTGTGGCAA	3.12
GAAAAGGGGAAGTGTGGACA	3.38
AGAAAAAGGAAGTGGGTATG	3.27
CACAAGAGGAAGTCCCACAA	2.31

Sequence	binding signal [z-score]
GAAAACAGGAAGTGAGATGC	5.48
AAAAAACGGAACTGGCTAGA	2.14
AGCATGAGGAAGTGTCAGAT	2.04
AGAGGAAGGAAGTGAGAGTA	2.55
TGATAGGGGAAGTGGGAGTT	2.05
GGGAGGAGGAACTGGGGATC	0.466
GATAAGAGGAGGTCCTCTGT	0.0833
AGATTGAGGAAGTGGGCTAT	3.12
CAAAGGGGGAAGTGCCACAC	2.03
AGAAAAAGGAAGTCGGCCTC	2.7
AGAAAGAGGAAGAGCTGCCA	2.05
AAAATGAGGAAGTGAACATC	4.11
AAAAAGAGGAACAGTTTAAG	1.63
AGAAAGAGGAAATGAGGTTT	3.23
TCTTAGAGGAACTGAAATGG	0.558
TAAATGAGGAAGTGCACTTG	3.56
CAAATGAGGAACTGATGCGT	2.31
TAGGAGAGGAAGTGAAAAAC	3
GAAAAGAGGAAGTGTGTTCT	3.84
AAAAGAAGGAAGTCCCCTGC	1.89
